From PubChem BioAssay AID463173 (ICCB-Longwood Screening Facility, Harvard Medical School, 2010)
Screen size: about 52,000 compounds; about 4,300 (8.3%) were called active. Rule as the data show it: active = survival mostly below about 52% (no sharp cut-off); inactive = mostly above about 56%. Some of the results follow.

Tested on: DeltatarO mutant
Assay: growth inhibition of S. aureus wild type versus tarO mutant, primary screen, teichoic acid synthesis inhibitors, RN4220, OD600 (AID 463173)
Conditions: OD600, 18 h, active compounds read low, screened at 18.75 µg/mL (by protocol)

Q: Which survival does the source give for COc1ccc(N2C(=O)CCSC23C(=O)N(Cc2ccc(F)cc2)c2ccccc23)cc1Cl (stereo not given) here?
A: The survival was inactive: 78%.

Q: How did the survival turn out when Cc1cccc(N2CCN(S(=O)(=O)c3c(C)nc4scc(C)n4c3=O)CC2C)c1 (stereo not given) was run?
A: The survival was inactive: 89%.

Q: For Cc1ccc(CCNC(=O)CN2N=C(c3ccc(C)cc3)CCC2=O)cc1, which survival is on record?
A: Its survival is inactive: 74%.

Q: CCc1ccccc1NC(=O)Cn1c(=O)ccc2cc(S(=O)(=O)N3CCC(C)CC3)ccc21 was tested. Which survival did it give?
A: The survival was inactive: 92%.

Q: Which survival does the source give for CC1CCN(C(=O)c2ccc(NC(=O)c3nsc4ccccc34)cc2)CC1 here?
A: Its survival is inactive: 72%.

Q: How did the survival turn out when CCOC(=O)c1sc(NC(=O)c2nc3nc(C)cc(C(F)F)n3n2)c(C(=O)OC)c1C was run?
A: Its survival is inactive: 67%.

Q: COc1cccc(NS(=O)(=O)c2cc(-c3cnc(C4CC4)o3)ccc2C)c1 was tested. Which survival did it give?
A: Its survival is inactive: 77%.

Q: COc1ccc(-c2noc(C3CC(=O)N(c4ccc5c(c4)OCCO5)C3)n2)c(OC)c1 (stereo not given) was tested. Which survival did it give?
A: Its survival is inactive: 98%.

Q: With COC(=O)c1c(NC(=O)/C(C#N)=C/c2ccc(OC)cc2)sc2c1C(C(=O)OC)CC2 (stereo not given) as the compound, how does the survival read?
A: The survival was inactive: 88%.

Q: How did the survival turn out when CCc1ccccc1NC(=O)[C@H](Cc1ccccc1)N1Cc2ccccc2C1=O was run?
A: Its survival is inactive: 77%.

Q: With O=C(O)CSc1nc2ccccc2nc1N1CCCCC1 as the compound, how does the survival read?
A: Its survival is inactive: 56%.

Q: For COc1ccc(CCNC(=O)CSc2cn(CCNC(=O)c3ccc(OC)c(OC)c3)c3ccccc23)cc1OC, which survival is on record?
A: Its survival is inactive: 77%.

Q: How did the survival turn out when OCCCCNc1cccc2ccccc12 was run?
A: Its survival is inactive: 93%.

Q: CCOc1ccc(Nc2oc(/C=C/c3cc(OC)c(OC)c(OC)c3)nc2C#N)cc1 was tested. Which survival did it give?
A: Its survival is inactive: 58%.

Q: For O=C(COC(=O)c1cc(-c2cccs2)nc2ccccc12)c1ccc(Cl)cc1, which survival is on record?
A: The survival was inactive: 50%.

Q: COc1cc(C(=O)NCCSc2c(C)[nH]c3ccccc23)cc(OC)c1OC was tested. Which survival did it give?
A: The survival was inactive: 76%.

Q: COc1ccc(NC(=O)CN(C)S(=O)(=O)c2cnc[nH]2)cc1 was tested. Which survival did it give?
A: Its survival is inactive: 95%.

Q: How did the survival turn out when CCOc1ccc(NC(=O)CSc2nc3ccccc3c(=O)n2CCC(=O)NC2CCCCC2)cc1 was run?
A: The survival was inactive: 117%.

Q: For O=C(NC1CC(=O)N(c2ccc(Cl)cc2)C1)C1CCCCC1 (stereo not given), which survival is on record?
A: The survival was inactive: 87%.

Q: With Cc1ccc(CNc2c(C)c(C)nc3nncn23)cc1 as the compound, how does the survival read?
A: The survival was inactive: 85%.

Q: Which survival does the source give for COc1ccc(-c2cn3c(n2)sc2cc(C(=O)NCc4ccccc4)ccc23)cc1 here?
A: Its survival is inactive: 63%.

Q: Which survival does the source give for COc1ccc(OC)c(C2CC(=O)Nc3ccc4ccccc4c32)c1 (stereo not given) here?
A: Its survival is inactive: 111%.

Q: How did the survival turn out when COc1ccc(Cc2nc3ccc(C(=O)NCCc4ccc(Cl)cc4)cc3o2)cc1 was run?
A: Its survival is inactive: 75%.

Q: CCN(C(=O)CCS(=O)(=O)c1cc(Br)cc2c1N(C(=O)C1CC1)CC2)c1cccc(C)c1 was tested. Which survival did it give?
A: Its survival is inactive: 85%.

Q: How did the survival turn out when CC1Cc2cc(S(=O)(=O)CCC(=O)Nc3ccc(OC(F)(F)F)cc3)ccc2N1C(=O)C1CC1 (stereo not given) was run?
A: Its survival is inactive: 85%.

Q: NC(=O)c1noc(C(=O)N(c2ccc(OC(F)(F)F)cc2)C(C(=O)NC2CCCC2)c2c[nH]c3ccccc23)c1N (stereo not given) was tested. Which survival did it give?
A: The survival was inactive: 104%.

Q: COc1ccccc1C1=Nn2c(nc3sc(C(=O)Nc4ccccc4Cl)c(C)c3c2=O)SC1 was tested. Which survival did it give?
A: Its survival is inactive: 86%.

Q: Cc1ccc(C)c(C(=O)N2CCC(c3nc4c(nnn4Cc4ccccc4)c(=O)[nH]3)CC2)c1 was tested. Which survival did it give?
A: The survival was active: 39%.

Q: Which survival does the source give for CCOCCCn1c(SCC(=O)Nc2ccccc2OC)nc2c(oc3ccccc32)c1=O here?
A: The survival was inactive: 82%.

Q: How did the survival turn out when COc1ccc(C2c3cc(OC)c(OC)cc3CC(=O)N2c2cccc(C#N)c2)cc1 (stereo not given) was run?
A: Its survival is inactive: 84%.

Q: With O=C(c1ccco1)N1CCN(C(c2ccccc2)c2nnnn2Cc2ccccc2)CC1 (stereo not given) as the compound, how does the survival read?
A: Its survival is inactive: 88%.

Q: For CC(NC(=O)c1c(O)nc2ccccn2c1=O)c1ccccc1 (stereo not given), which survival is on record?
A: Its survival is inactive: 54%.

Q: With Cc1cccc(C)c1NC(=O)CSc1nccn1C as the compound, how does the survival read?
A: Its survival is inactive: 74%.

Q: Which survival does the source give for Cc1ccc(C)c(CN2C(=O)c3ccccc3S(=O)(=O)c3ccc(C(=O)N4CCN(Cc5ccccc5)CC4)cc32)c1 here?
A: The survival was inactive: 59%.

Q: CCOc1ccc(CNC(=O)c2cccc(Nc3nc4ccccc4n4nnnc34)c2)cc1OC was tested. Which survival did it give?
A: The survival was inactive: 50%.

Q: Which survival does the source give for CCOc1ccc(NC(=O)c2oc3ccccc3c2NC(=O)C(C)Oc2ccccc2)cc1 (stereo not given) here?
A: Its survival is inactive: 75%.

Q: How did the survival turn out when CC(=O)c1cc2c(cc1N/C(=N/S(=O)(=O)c1ccc(C)cc1)c1ccc(Cl)cc1)OCO2 was run?
A: Its survival is active: 37%.

Q: Which survival does the source give for O=C(CCn1c(=O)c2cccn2c2cccnc21)NCc1cccc(Br)c1 here?
A: Its survival is inactive: 82%.

Q: Cc1ccc2c(=O)cc(C(=O)Nc3ccc(S(=O)(=O)N4CCCC(C)C4)cc3)oc2c1C (stereo not given) was tested. Which survival did it give?
A: Its survival is active: 51%.

Q: With CCOc1ccc(Sc2cc(C(=O)NCCc3ccc(OC)c(OC)c3)c3ccccc3n2)cc1 as the compound, how does the survival read?
A: Its survival is inactive: 86%.

Q: With CCn1cc(C(=O)N2CCN(c3ccccc3OC)CC2)c(=O)c2cc(S(=O)(=O)N3CCCCC3)ccc21 as the compound, how does the survival read?
A: The survival was inactive: 77%.

Q: How did the survival turn out when COc1ccc(-c2nn(-c3ccccc3)cc2C(=O)Nc2ccccc2OC)cc1 was run?
A: Its survival is active: -2%.

Q: For Cc1cccc(C(=O)Nc2ccccc2-c2nc(-c3ccccc3)no2)c1, which survival is on record?
A: Its survival is inactive: 57%.

Q: With CC(=O)c1c(C)oc2ccc(N(C(=O)Oc3ccccc3)S(=O)(=O)c3ccc(Br)cc3)cc12 as the compound, how does the survival read?
A: Its survival is inactive: 131%.

Q: How did the survival turn out when O=C(Nc1ccccc1)Nc1cccc2nsnc12 was run?
A: Its survival is inactive: 69%.

Q: How did the survival turn out when CC(C)CN(c1ccccc1)S(=O)(=O)c1nnc(NC(=O)c2ccco2)s1 was run?
A: Its survival is active: 31%.

Q: For CC1=C(c2ccc(C)c(C)c2)S(=O)(=O)N=C1N1CCN(c2cccc(C(F)(F)F)c2)CC1, which survival is on record?
A: The survival was inactive: 87%.

Q: For CCOc1ccc(-n2c(=O)c3c4c(sc3n(Cc3cccc(Cl)c3)c2=O)CCCC4)cc1, which survival is on record?
A: The survival was inactive: 68%.

Q: With CCCNC(=O)N1CCc2cc(OC)c(OC)cc2C1c1cc2cc3c(cc2[nH]c1=O)OCO3 (stereo not given) as the compound, how does the survival read?
A: The survival was inactive: 91%.

Q: Which survival does the source give for O=C(NCC(c1ccc2c(c1)OCO2)N1CCOCC1)c1ccc(F)cc1 (stereo not given) here?
A: Its survival is inactive: 55%.

Q: Cc1ccc(/C=C(\C#N)c2nc(-c3cc4c(ccc5ccccc54)oc3=O)cs2)cc1 was tested. Which survival did it give?
A: The survival was inactive: 122%.

Q: For CCCC(=O)N(c1ccc2oc(-c3ccccc3)c(C(=O)OCC)c2c1)S(=O)(=O)c1ccc(C)cc1, which survival is on record?
A: Its survival is inactive: 140%.

Q: COCCCNC(=O)Cn1c(=O)n(CCCC(=O)NCc2ccc(C)cc2)c(=O)c2ccccc21 was tested. Which survival did it give?
A: The survival was inactive: 101%.

Q: Which survival does the source give for CCCCN1CC(c2nc3ccccc3n2CCCCOc2c(C)cccc2C)CC1=O (stereo not given) here?
A: Its survival is active: 46%.

Q: CCN(C(=O)c1sc2nc3n(c(=O)c2c1C)CCCCC3)c1ccccc1F was tested. Which survival did it give?
A: The survival was inactive: 51%.
